# Experimental data as given in the supplement of paper PMC8728848.
# Some of the results follow.
# B1: Epa1to9 (Candida glabrata) (protein)
# chain: MGSSHHHHHHSSGLVPRGSHMTSSNDISLASKDPTTFPLGCSPDITTPKKGLSMELYSYDFRKKGSYPCWDAAYLDPNYPRTGYKSHRLLAKVDGVTGNINFYYHATKGCTPQLGHLPASYNYPKPLTMTNFTMLLYGYFRPKVTGFHTFTISADDLLFVNFGAGNAFDCCRRDSSADHFGNYQAYAIWGSKTAKDELTVHLDAGVYYPIRLFYNNRDYHGALSFTFKTESNENTVSDFSEYFFSLDDTEEGCPGLISYD
# Columns and labels:
# Test in all cases: glycan array binding signal (z-score within array); higher = stronger binding
# Conditions in all cases: glycan notation: IUPAC condensed, linker removed
# [1] = target: Kdn(a2-3)Gal(b1-3)GlcNAc
# Procedure, shortened: (§1)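 Glycan array binding is given as a within-array Z-score, which can be read as non-binding when negative. The arrays, 3228 of them, came from the Consortium for Functional Glycomics database and were retained only where the protein sequence was available. Z-scores were averaged across arrays of the same protein sequence at different concentrations or buffers and across linkers.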
# [2] = target: Kdn(a2-3)Gal(b1-4)Glc
# Procedure, shortened: as §1
# [3] = target: Kdn(a2-3)Gal(b1-4)GlcNAc
# Procedure, shortened: as §1
# [4] = target: Kdn(a2-3)Gal(b1-4)[Fuc(a1-3)]GlcNAc
# Procedure, shortened: as §1
# [5] = target: Kdn(a2-6)Gal(b1-4)GlcNAc
# Procedure, shortened: as §1
# [6] = target: Man(a1-2)Man(a1-2)Man(a1-3)Man
# Procedure, shortened: as §1
# [7] = target: Man(a1-2)Man(a1-2)Man(a1-6)[Man(a1-3)]Man
# Procedure, shortened: as §1
# [8] = target: Man(a1-2)Man(a1-3)Man
# Procedure, shortened: as §1
# [9] = target: Man(a1-2)Man(a1-3)[Man(a1-2)Man(a1-6)]Man
# Procedure, shortened: as §1
# [10] = target: Man(a1-2)Man(a1-3)[Man(a1-2)Man(a1-6)]Man(a1-6)[Man(a1-2)Man(a1-2)Man(a1-3)]Man
# Procedure, shortened: as §1
# [11] = target: Man(a1-2)Man(a1-3)[Man(a1-2)Man(a1-6)]Man(a1-6)[Man(a1-2)Man(a1-2)Man(a1-3)]Man(b1-4)GlcNAc(b1-4)GlcNAc
# Procedure, shortened: as §1
# [12] = target: Man(a1-2)Man(a1-3)[Man(a1-6)]Man(a1-6)[Man(a1-2)Man(a1-3)]Man(b1-4)GlcNAc(b1-4)GlcNAc
# Procedure, shortened: as §1
# [13] = target: Man(a1-2)Man(a1-6)[Man(a1-3)]Man(a1-6)[Man(a1-2)Man(a1-2)Man(a1-3)]Man
# Procedure, shortened: as §1
# [14] = target: Man(a1-2)Man(a1-6)[Man(a1-3)]Man(a1-6)[Man(a1-2)Man(a1-2)Man(a1-3)]Man(b1-4)GlcNAc(b1-4)GlcNAc
# Procedure, shortened: as §1
# [15] = target: Man(a1-3)[Man(a1-6)]Man
# Procedure, shortened: as §1
# [16] = target: Man(a1-3)[Man(a1-6)]Man(a1-6)[Man(a1-2)Man(a1-3)]Man(b1-4)GlcNAc(b1-4)GlcNAc
# Procedure, shortened: as §1
# [17] = target: Man(a1-3)[Man(a1-6)]Man(a1-6)[Man(a1-3)]Man
# Procedure, shortened: as §1
# [18] = target: Man(a1-3)[Man(a1-6)]Man(a1-6)[Man(a1-3)]Man(b1-4)GlcNAc(b1-4)GlcNAc
# Procedure, shortened: as §1
# [19] = target: Man(a1-3)[Man(a1-6)]Man(b1-4)GlcNAc(b1-4)GlcNAc
# Procedure, shortened: as §1
# [20] = target: Man(a1-3)[Man(a1-6)]Man(b1-4)GlcNAc(b1-4)[Fuc(a1-6)]GlcNAc
# Procedure, shortened: as §1
# [21] = target: Man(a1-6)Man
# Procedure, shortened: as §1
# [22] = target: Man(b1-4)GlcNAc
# Procedure, shortened: as §1
# [23] = target: MurNAc(b1-4)GlcNAc
# Procedure, shortened: as §1
# [24] = target: Neu5Ac(a2-3)Gal
# Procedure, shortened: as §1
# [25] = target: Neu5Ac(a2-3)Gal(b1-3)GalNAc
# Procedure, shortened: as §1
# [26] = target: Neu5Ac(a2-3)Gal(b1-3)GalNAc(b1-3)Gal(a1-4)Gal(b1-4)Glc
# Procedure, shortened: as §1
# [27] = target: Neu5Ac(a2-3)Gal(b1-3)GalNAc(b1-4)[Neu5Ac(a2-3)]Gal(b1-4)Glc
# Procedure, shortened: as §1
# [28] = target: Neu5Ac(a2-3)Gal(b1-3)GalNAc(b1-4)[Neu5Ac(a2-8)Neu5Ac(a2-3)]Gal(b1-4)Glc
# Procedure, shortened: as §1
# [29] = target: Neu5Ac(a2-3)Gal(b1-3)GalNAc6S
# Procedure, shortened: as §1
# [30] = target: Neu5Ac(a2-3)Gal(b1-3)GlcNAc
# Procedure, shortened: as §1
# [31] = target: Neu5Ac(a2-3)Gal(b1-3)GlcNAc(b1-2)Man
# Procedure, shortened: as §1
# [32] = target: Neu5Ac(a2-3)Gal(b1-3)GlcNAc(b1-2)Man(a1-3)[GlcNAc(b1-4)][Neu5Ac(a2-3)Gal(b1-3)GlcNAc(b1-2)Man(a1-6)]Man(b1-4)GlcNAc(b1-4)GlcNAc
# Procedure, shortened: as §1
# [33] = target: Neu5Ac(a2-3)Gal(b1-3)GlcNAc(b1-2)Man(a1-3)[Neu5Ac(a2-3)Gal(b1-3)GlcNAc(b1-2)Man(a1-6)]Man(b1-4)GlcNAc(b1-4)GlcNAc
# Procedure, shortened: as §1
# [34] = target: Neu5Ac(a2-3)Gal(b1-3)GlcNAc(b1-2)[Neu5Ac(a2-3)Gal(b1-3)GlcNAc(b1-4)]Man(a1-6)[Neu5Ac(a2-3)Gal(b1-3)GlcNAc(b1-2)Man(a1-3)]Man(b1-4)GlcNAc(b1-4)GlcNAc
# Procedure, shortened: as §1
# [35] = target: Neu5Ac(a2-3)Gal(b1-3)GlcNAc(b1-3)Gal(b1-3)GlcNAc
# Procedure, shortened: as §1
# [36] = target: Neu5Ac(a2-3)Gal(b1-3)GlcNAc(b1-3)Gal(b1-4)GlcNAc
# Procedure, shortened: as §1
# [37] = target: Neu5Ac(a2-3)Gal(b1-3)GlcNAc(b1-3)GalNAc
# Procedure, shortened: as §1
# [38] = target: Neu5Ac(a2-3)Gal(b1-3)GlcNAc(b1-4)Gal(b1-4)Glc
# Procedure, shortened: as §1
binder,measurement,setting,value
B1,glycan array binding signal (z-score),[1],-0.312
same,glycan array binding signal (z-score),[2],-0.306
same,glycan array binding signal (z-score),[3],-0.295
same,glycan array binding signal (z-score),[4],-0.241
same,glycan array binding signal (z-score),[5],-0.284
same,glycan array binding signal (z-score),[6],-0.358
same,glycan array binding signal (z-score),[7],-0.345
same,glycan array binding signal (z-score),[8],-0.36
same,glycan array binding signal (z-score),[9],-0.366
same,glycan array binding signal (z-score),[10],-0.377
same,glycan array binding signal (z-score),[11],-0.336
same,glycan array binding signal (z-score),[12],-0.358
same,glycan array binding signal (z-score),[13],-0.478
same,glycan array binding signal (z-score),[14],-0.362
same,glycan array binding signal (z-score),[15],-0.287
same,glycan array binding signal (z-score),[16],-0.294
same,glycan array binding signal (z-score),[17],-0.347
same,glycan array binding signal (z-score),[18],-0.335
same,glycan array binding signal (z-score),[19],-0.358
same,glycan array binding signal (z-score),[20],-0.339
same,glycan array binding signal (z-score),[21],-0.35
same,glycan array binding signal (z-score),[22],-0.344
same,glycan array binding signal (z-score),[23],-0.359
same,glycan array binding signal (z-score),[24],-0.349
same,glycan array binding signal (z-score),[25],-0.37
same,glycan array binding signal (z-score),[26],-0.344
same,glycan array binding signal (z-score),[27],-0.336
same,glycan array binding signal (z-score),[28],-0.3
same,glycan array binding signal (z-score),[29],-0.269
same,glycan array binding signal (z-score),[30],-0.335
same,glycan array binding signal (z-score),[31],-0.33
same,glycan array binding signal (z-score),[32],-0.282
same,glycan array binding signal (z-score),[33],-0.346
same,glycan array binding signal (z-score),[34],-0.34
same,glycan array binding signal (z-score),[35],-0.362
same,glycan array binding signal (z-score),[36],-0.389
same,glycan array binding signal (z-score),[37],-0.311
same,glycan array binding signal (z-score),[38],-0.338
